Among all 310,000 compounds or so, about 14,000 (4.5%) showed an effect of 50% or more. Effects have a minus sign here. The list shows a part of the results.
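Note: peak tail current of the secondary pulse compared with the same well before compound.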

human ether-à-go-go-related gene (hERG) potassium channel, sequence (Q12809 whole entry, looked up): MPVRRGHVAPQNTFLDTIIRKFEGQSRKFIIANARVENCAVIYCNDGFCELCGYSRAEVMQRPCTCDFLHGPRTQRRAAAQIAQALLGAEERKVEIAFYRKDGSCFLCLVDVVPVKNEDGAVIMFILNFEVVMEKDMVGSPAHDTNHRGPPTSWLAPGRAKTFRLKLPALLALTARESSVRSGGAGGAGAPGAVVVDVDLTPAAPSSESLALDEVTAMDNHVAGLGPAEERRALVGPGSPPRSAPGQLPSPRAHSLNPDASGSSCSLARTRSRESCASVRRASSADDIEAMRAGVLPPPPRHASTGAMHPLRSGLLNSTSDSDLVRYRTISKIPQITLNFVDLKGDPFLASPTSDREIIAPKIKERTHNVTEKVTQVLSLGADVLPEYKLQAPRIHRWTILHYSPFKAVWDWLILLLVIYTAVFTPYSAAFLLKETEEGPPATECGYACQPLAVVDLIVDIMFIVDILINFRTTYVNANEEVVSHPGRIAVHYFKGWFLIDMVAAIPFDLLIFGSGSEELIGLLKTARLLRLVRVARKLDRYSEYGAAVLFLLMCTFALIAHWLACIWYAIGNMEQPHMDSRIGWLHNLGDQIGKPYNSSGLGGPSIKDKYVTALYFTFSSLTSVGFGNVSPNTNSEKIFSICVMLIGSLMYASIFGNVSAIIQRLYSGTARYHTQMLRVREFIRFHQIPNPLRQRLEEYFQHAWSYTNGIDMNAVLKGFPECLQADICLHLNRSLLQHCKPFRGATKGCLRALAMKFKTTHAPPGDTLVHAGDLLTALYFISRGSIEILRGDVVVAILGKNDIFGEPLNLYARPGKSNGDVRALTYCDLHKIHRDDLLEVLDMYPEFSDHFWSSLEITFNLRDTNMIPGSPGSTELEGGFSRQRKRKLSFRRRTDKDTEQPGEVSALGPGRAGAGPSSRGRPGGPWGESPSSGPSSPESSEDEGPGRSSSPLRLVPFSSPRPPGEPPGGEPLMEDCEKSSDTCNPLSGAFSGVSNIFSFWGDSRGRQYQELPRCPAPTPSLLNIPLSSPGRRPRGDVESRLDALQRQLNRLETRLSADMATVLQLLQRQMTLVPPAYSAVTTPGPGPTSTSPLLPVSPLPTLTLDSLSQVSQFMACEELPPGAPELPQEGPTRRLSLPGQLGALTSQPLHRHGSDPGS

This experiment concerns the target human ether-à-go-go-related gene (hERG) potassium channel (human, UniProt Q12809). In words: primary screen, population patch clamp on CHO cells stably expressing hERG.
As to `COc1ccc(NC(=O)CSc2nccn2C)c([N+](=O)[O-])c1`, the “hERG current change (%, negative = inhibition) at 10uM” value is recorded as -2.64%.

As to `COc1cccc(CCNC(=O)CCc2nnc(-c3cc(C)oc3C)o2)c1`, the “hERG current change (%, negative = inhibition) at 10uM” value is listed as -7.06%. In the case of `NNc1nnc2c3cc(F)ccc3n(CCc3ccccc3)c2n1` it was -31.3%; in that of `CCOC(=O)C1=C(C)NC2=C(C(=O)CC(c3cccs3)C2)C1c1cccs1` (centres unmarked), -1.6%; in that of `CCCNC(=O)c1ccc2c(c1)C1C3CCC(C3)C1C(c1ccccc1)N2` (centres unmarked), 3.72%. In the case of `Cc1cc(C)n(-c2nc(Nc3ccccc3C)nc(-n3nc(C)cc3C)n2)n1` it was 10.4%. On to `Cc1cccc(NC(=O)CN2C(=O)S/C(=C\c3cccn3-c3cccc(C(=O)O)c3)C2=O)c1`, for which the “hERG current change (%, negative = inhibition) at 10uM” value was 2.3%. In the case of `CCCCCC(=O)C(=O)c1ccc(O)cc1O` it was 16.6%.

As for `CC(C)CN1C(=O)c2ccc(C(=O)Nc3ccccc3C(=O)O)cc2C1=O`, the “hERG current change (%, negative = inhibition) at 10uM” value turned out to be 37.8%. With `Cl.O=C(NCCCn1ccnc1)c1ccccc1F`, the “hERG current change (%, negative = inhibition) at 10uM” value is listed as 2.13%.

`CCN1CN(Cc2ccco2)CNC1=S`: the “hERG current change (%, negative = inhibition) at 10uM” value is recorded as -0.0885%. Consider `CCn1c(=O)c(C(=O)NCc2ccccc2)c(O)c2ccccc21`, for which the “hERG current change (%, negative = inhibition) at 10uM” value was 19.1%. In the case of `OCCN1CCN(C(=S)c2ccc(-c3ccccc3)cc2)CC1` it was -25.9%; in that of `COc1ccc(/C=N/n2c(C)cc(C)cc2=O)cc1`, 13.9%; in that of `CCn1c(=O)c(C(=O)NCc2cccnc2)c(O)c2ccccc21`, -56.4%. The figure for `Nc1c(C(=O)CSc2nnc(COc3ccc(Cl)cc3)o2)c(=O)[nH]c(=O)n1C1CC1` is 10.5%; for `CCN(CC)S(=O)(=O)c1cccc(NC(=O)COC(=O)/C=C/c2cccs2)c1` it is -8.54%. The figure for `CC(=O)N1CCN(C(=O)COc2ccc3oc4c(c3c2)CCCC4)CC1` is -25.4%; for `CC(=O)c1c(C)[nH]c(C(=O)NCCc2ccc(Cl)cc2)c1C` it is -14.4%; for `S=C(NCCc1ccc(Cl)cc1)NCc1ccco1` it is 2.75%. As for `COCCN(CCOC)C(=O)N1CCOCC1`, the “hERG current change (%, negative = inhibition) at 10uM” value is listed as 26.3%. The figure for `COc1cc(OC)cc(C(=O)NCc2ccc3[nH]c(C)cc3c2)c1` is 11.1%; for `CCn1c(SCC(=O)N2CCN(S(=O)(=O)c3ccccc3)CC2)nnc1-c1cccs1` it is -7.78%. On to `N#Cc1ccccc1-c1ccccc1C(=O)N1CCCCC1`, for which the “hERG current change (%, negative = inhibition) at 10uM” value was -7.77%. In the case of `Cc1cc(C)c(OCCN2CCCC2)c(Cl)c1` it was -42.1%; in that of `Cc1c(N=C/C=C/c2ccccc2)c(=O)n(-c2ccccc2)n1C`, 11.1%. Consider `N#CC1=C(N)SC(N)=C(C#N)C1c1c(Cl)cccc1Cl`, for which the “hERG current change (%, negative = inhibition) at 10uM” value is listed as 1.64%. As to `O=C(CN1C(=O)c2cccc([N+](=O)[O-])c2C1=O)N1CCN(S(=O)(=O)c2ccccc2)CC1`, the “hERG current change (%, negative = inhibition) at 10uM” value is given as -14.3%. On to `COCc1cc(C)nc2sc(C(=O)Nc3ccccc3Br)c(N)c12`, for which the “hERG current change (%, negative = inhibition) at 10uM” value is -9.3%. The figure for `C(=C\CSc1nnnn1-c1ccccc1)/CSc1nnnn1-c1ccccc1` is -42.6%; for `COc1ccc(-c2cc3nnc(-c4ccccc4)nc3s2)cc1` it is 15.8%; for `CCCOc1ccc(C(=O)OCCN(CC)CC)cc1N.Cl` it is -51.9%. For the compound `CC(C)CCn1c(Sc2nc3ccccc3o2)nc2c1c(=O)[nH]c(=O)n2C`, the “hERG current change (%, negative = inhibition) at 10uM” value is -20.8%. In the case of `O=C(N/C(=C\c1ccco1)C(=O)N1CCOCC1)c1ccco1` it was 5.25%; in that of `COC(=O)c1cc(OC)c(OC)cc1N`, -2.91%. In the case of `Cn1nccc1NS(=O)(=O)c1ccc(C(C)(C)C)cc1` it was 18.7%; in that of `COc1ccc(/C=C/C(=O)Nn2cnnc2)cc1`, -7.45%. The figure for `CC1CCN(C(=O)COC(=O)CCCN2C(=O)c3cccc4cccc(c34)C2=O)CC1` is -31.3%. Turning to `NC(=O)c1ccc(NC(=O)CCN=C2NS(=O)(=O)c3ccccc32)cc1`, the “hERG current change (%, negative = inhibition) at 10uM” value is reported as 15.8%.

With `CCOc1ccccc1NC(=O)CSc1nnnn1-c1ccccc1`, the “hERG current change (%, negative = inhibition) at 10uM” value is -21.3%.

`Cc1ccc(S(=O)(=O)N2CCC(C(=O)OCc3ccc([N+](=O)[O-])cc3)CC2)cc1`: the “hERG current change (%, negative = inhibition) at 10uM” value was -69.8%. The figure for `O=C(c1cccc(F)c1)N1CCN=C1SCc1cccnc1` is 3.59%; for `Cc1ccc(C)c(N(C(=O)CNC(=O)c2ccco2)C(C(=O)NCC2CCCO2)c2ccccc2)c1` (centres unmarked) it is 5.35%; for `NC(=O)c1c(NC(=O)c2ccccc2)sc2c1CCCC2` it is -36.9%. The figure for `O=[N+]([O-])c1cc(C(F)(F)F)ccc1NCCNC(=S)Nc1ccc(Cl)cc1` is -5.11%; for `Cc1ccc(CN2CCN(Cc3cccc4c3OCO4)CC2CCO)cc1` (centres unmarked) it is -51.2%; for `O=C(NNC(=O)C1CCN(c2ncccn2)CC1)c1ccccc1` it is 22.8%.

Take `Cn1cccc1C(=O)NC(=O)COC(=O)CCNS(=O)(=O)c1cccc(C(F)(F)F)c1`: the “hERG current change (%, negative = inhibition) at 10uM” value is -52.4%. In the case of `Cn1c(=O)oc2cc(S(=O)(=O)N3CCC(C(=O)NCCc4ccccc4)CC3)ccc21` it was 10.3%. The figure for `CCN1CCN(CC(=O)Nc2ccc(S(=O)(=O)N3C(C)CCCC3C)cc2)CC1` (centres unmarked) is -15.7%; for `C/C(CCc1ccccc1)=N/NC(=O)C(=O)NCc1ccccc1` it is 21.7%. In the case of `N#CCC(=O)N/N=C/c1cn(Cc2ccccc2C#N)c2ccccc12`, the “hERG current change (%, negative = inhibition) at 10uM” value stood at 20.9%.

In the case of `Cc1ccc(NC(=S)N(CCCN2CCN(C)CC2)Cc2cccs2)cc1C`, the “hERG current change (%, negative = inhibition) at 10uM” value was -57%.

On to `Cc1cc2c(cc1S(=O)(=O)CCC(=O)Nc1cccc(C(F)(F)F)c1)OCC(=O)N2`, for which the “hERG current change (%, negative = inhibition) at 10uM” value is -54%.

For `O=C1N(Cc2cccc(Cl)c2)C[C@@H]2C[C@@H](c3cccc4ncccc34)N3CCC[C@@]123`, the “hERG current change (%, negative = inhibition) at 10uM” value is given as -48.8%.

Turning to `CNc1c([N+](=O)[O-])cnn1-c1ccc(F)cc1`, the “hERG current change (%, negative = inhibition) at 10uM” value is listed as -2.95%. The figure for `CC(C)Cn1c(CCCNC(=O)c2ccco2)nc2ccccc21` is -6.77%. The figure for `COc1ccc(NC(=O)C(c2ccc(OC)cc2)N(C)C(=O)CNC(C)=O)cc1` (centres unmarked) is 5.95%.

`CCOC(=O)c1sc(NC(=O)Cn2nnc3sc4c(c3c2=O)CCC(C(C)(C)C)C4)nc1C` (centres unmarked): the “hERG current change (%, negative = inhibition) at 10uM” value is listed as -2.93%. The figure for `CC(C)=CC(=O)N1CCCC(N2CCN(c3ccccc3C)CC2)C1` (centres unmarked) is -16%. The figure for `O=Cc1c(NCCN2CCCC2)c2ccccc2[nH]c1=O` is 19.7%; for `Cc1cccc(/C=C2/Sc3ccc(C(=O)NCCN4CCCC4)cc3NC2=O)c1` it is -54.7%; for `COc1ccc(CNC(=O)N2CCN(c3cccc(C)c3C)CC2)cc1OC` it is -10.1%.

In the case of `CCc1nc2ccccc2c(=O)n1-c1cccc(OC)c1`, the “hERG current change (%, negative = inhibition) at 10uM” value is -14.5%.

`O=C(OCCOCCN=C1NS(=O)(=O)c2ccccc21)c1ccccc1`: the “hERG current change (%, negative = inhibition) at 10uM” value is 2.47%. In the case of `CC1CCN(CCOCCOc2ccccc2Br)CC1` it was -30.1%.

On to `CN1CCC(=NNC(=O)CN(c2ccccc2)S(=O)(=O)c2ccccc2)CC1`, for which the “hERG current change (%, negative = inhibition) at 10uM” value was -1.63%. In the case of `COc1ccc(-c2cc(CCCC(=O)NCCc3ccccc3)no2)cc1` it was -5.93%; in that of `O=c1c2ccccc2nc2n1CCCCC2`, -4.17%; in that of `CC(=O)N=C1C=CC(=CN(O)C(C)(C)Cc2ccccc2)C=C1`, -6.17%. For `CC(C)(C)c1ccc(OCC(=O)Nc2ccncc2)cc1`, the “hERG current change (%, negative = inhibition) at 10uM” value was 8.71%. The figure for `COc1ccc([C@H]2CC(=O)C=C(c3cccc(F)c3OC)C2)cc1` is -0.411%; for `CC(C)c1ccc(OCC(=O)Nc2ccc(S(=O)(=O)Nc3ccccn3)cc2)cc1` it is 10.7%. As to `CCc1c(C)nc2ncnn2c1Nc1ccc(C(C)=O)cc1`, the “hERG current change (%, negative = inhibition) at 10uM” value is on record as -41.6%. The figure for `C/C=C(/C)C(=O)Nc1cccc(C2=NOC3(C2)C[C@H](C(N)=O)N(C(=O)c2ccc(Cl)cc2)C3)c1` (some centres unmarked) is -14.7%. The figure for `COc1ccc(CNC(=O)CSc2nc3[nH]ncc3c(=O)n2-c2ccccc2Br)cc1` is 9.21%; for `CCOC(=O)C1=C(C)NC(C)=C(C(=O)OCC)C1c1ccccc1/C=C/C(=O)OC(C)(C)C` it is 16.6%; for `CN(c1ccccc1)S(=O)(=O)c1cc(C(=O)N2CCN(c3ccccn3)CC2)ccc1Cl` it is -16.3%. In the case of `COc1ccc(C(=O)N(Cc2nc(-c3ccc(C)cc3)no2)C(C)C)cc1OC` it was -31.4%; in that of `CCN(CC)C(=O)Cn1cc(S(=O)(=O)CC(=O)Nc2ccccc2C)c2ccccc21`, -5.17%.

For `C=CCSc1nnc(NC(=O)c2ccc(Cl)nc2)s1`, the “hERG current change (%, negative = inhibition) at 10uM” value worked out at 8.73%.

With `CCCOc1cc(C)c(S(=O)(=O)N2CCN(C)CC2)cc1C`, the “hERG current change (%, negative = inhibition) at 10uM” value was -12.7%. In the case of `COc1ccc(CSc2ncn[nH]2)cc1[N+](=O)[O-]` it was 2.83%; in that of `COc1ccc(NC2=C(Cl)C(=O)N(CCc3ccccc3)C2=O)cc1`, -42.2%. The figure for `Cc1ccc(CNC(=O)c2ccccc2NC(=O)CN2CC(C)OC(C)C2)cc1` (centres unmarked) is -13.2%. The figure for `C=CCOC(=O)c1sc(NC(=O)c2ccco2)nc1C` is 5.9%. Turning to `Cc1cc(=O)n2c(n1)OC(CO)C2` (centres unmarked), the “hERG current change (%, negative = inhibition) at 10uM” value was found to be 13.3%. In the case of `CCOC(=O)CCc1c(C)c2ccc(OCc3nn[nH]n3)c(C)c2oc1=O` it was 16.4%; in that of `O=C(NCc1n[nH]c(=S)n1-c1cccc(Cl)c1)c1ccc(S(=O)(=O)N2CCCC2)cc1`, 7.61%.

Source of the values: publication PMC4336329 (PLoS ONE, 2015).
